# Results reported in ChEMBL document CHEMBL4888484, “Replenishing the malaria drug discovery pipeline: Screening and hit evaluation of the MMV Hit Generation Library 1 (HGL1) against asexual blood stage Plasmodium falciparum ,using a nano luciferase reporter read-out” (2022).
# In all, about 150,000 compounds went through this assay and about 540 (0.36%) showed an effect of 50% or more. This is one part of the list.
# System: Plasmodium falciparum
# Assay: Primary screen in NF54 nanoGlo assay, in single point, at 2uM, 72h; a lower Z score goes with more inhibition
# Format: functional, Erythrocyte
# Settings: timepoint 72 hour
Structure (SMILES),% Inhibition [%],Z score
CCc1cc(C(=O)N2C[C@@H](CN3C[C@@H](C)O[C@@H](C)C3)[C@@H](CO)C2)ccn1,24,-2.39
Cc1nc2cccnc2n1C[C@H]1CCCN(S(=O)(=O)c2cc(F)cc(F)c2)C1,-3,0.43
O=S(=O)(Nc1ccc2[nH]nnc2c1)c1cc(F)c(F)c(F)c1,-2,0.29
C[C@@H](C(=O)NCc1nc(C2CCC(F)(F)CC2)no1)n1cccn1,-3,0.55
Cc1nc(CNC(=O)N2CCN(CC(C)(C)O)C[C@@H]2C)sc1C,-3,0.38
CCCN(CCC)Cc1ccc(CNS(=O)(=O)c2ccc3c(c2)C(C)(C)C(=O)N3C)o1,-13,1.68
COCCCN1CC[C@H](CNC(=O)c2[nH]c3ccc(C)cc3c2C)C1,-9,1.05
O=C(C1CCN([C@H]2CCc3c(F)ccc(F)c32)CC1)N1CCCCCC1,-10,1.08
O=C(Nc1cc2ccccc2cc1NC(=O)c1cccc(Cl)c1)c1cccc(Cl)c1,-17,2.97
CO[C@H]1CCCC[C@@H]1NCc1cnc(N(C)C)n1C,9,-1.52
O=C(COc1ccccc1)Nc1ccc(N2CCN(c3c(F)c(F)c(F)c(F)c3F)CC2)c(Cl)c1,32,-3.67
Cc1cccc(N2CCN(C(=O)c3cn4c(n3)CCCC4)CC2)c1,1,-0.14
Cc1cc(CC(=O)N2CCC(Cn3cncn3)CC2)no1,-6,1.08
Cc1cc(=O)n(CC(=O)N(C)Cc2ccc(-n3cccn3)cc2)nc1C,-13,2.41
Cc1ccc(NC(=O)N2CC[C@H](S(=O)(=O)c3ccc(Cl)cc3)C2)cc1C,0,-0.01
Cc1ccc(S(=O)(=O)N2CCc3nc(N4CCCC4)nc(N4CCN(C)CC4)c3C2)cc1,-2,0.24
CCCCN(Cc1cccn1Cc1ccc(Br)cc1)C(=O)CN(CC(C)C)C(=O)Nc1cccc2ccccc12,-3,0.52
Cc1ccc(-c2csc(Nc3ncccc3C)n2)o1,-7,0.92
CC(C)C(=O)N1CCC[C@H](CNC(=O)c2cccn3cnnc23)C1,5,-0.76
Cc1cccc(C(=O)N(C)c2nc(C)cs2)n1,-10,0.88
O=C(c1cn2cc(-c3ccc(Cl)cc3)ccc2n1)N1CCN(c2ccccc2)CC1,-20,2.37
COc1ccc(CN2C(=O)N[C@@H](CCC(=O)Nc3ccc(F)c(F)c3)C2=O)cc1,-8,0.9
CCC1CCN(C(=O)c2ccc3c(c2)N(CC(=O)N2CCCC2)C(=O)CO3)CC1,-13,1.74
CC[C@H](C)NC(=O)c1cc(NC(=O)C(C)C)cc2nc(C)n(Cc3ccccc3)c12,-2,0.4
O=C(CNS(=O)(=O)c1ccco1)NC1CCCCC1,-13,1.3
Cc1cc(=O)c(C(=O)N2CCN(C)CC2)c(CC2CCCC2)n1CCCN1CCCC1=O,-7,0.97
C[C@H](NCc1ccccc1)C1CCCCCC1,-15,2.07

Structure (SMILES),% Inhibition [%],Z score
CN1Cc2ccc(CN(C)C(=O)NCC(F)(F)F)cc2C1,-2,0.32
O=C(Cn1c(=O)n(Cc2ccco2)c(=O)c2ccccc21)NC1CCCCC1,34,-0.87
C[C@H](OC(=O)C1CCC1)C(=O)N1CC(=O)Nc2ccccc21,-4,0.84
CCN1C[C@@H](CN(C)Cc2[nH]cc(C)c(=O)c2C)CC1=O,-13,2.49
O=C(Nc1cc(-c2cccc(Cl)c2)no1)c1cc2ccc3cccnc3c2[nH]1,-6,1.09
COC1(CNC2CC(C)c3c(C)cccc32)CCOCC1 (stereo unspecified),-1,0.12
CC(C)CC1(CNC(=O)CNC(=O)N(C)C)CCC1,12,-1.68
CC1CCN(C[C@H]2CCCCCN2C(=O)c2ccccc2F)CC1,-4,0.63
Cc1nnc(N2CCN(c3cccc(Cl)c3)CC2)c2c1nnn2Cc1ccc(F)cc1,-2,0.18
CCOCC(O)CN1CCC(c2ccccn2)C1 (stereo unspecified),1,-0.2
Cc1c(C(=O)Nc2cc(F)ccc2F)sc2ncnc(N3CCCC3)c12,-14,1.31
Cc1cnn(C2CN(Cc3nc4ccccc4c(=O)[nH]3)C2)c1,-5,1.01
CN(C)c1nc(NCc2ccccc2Cl)c2cnn(C)c2n1,-2,0.31
O=C(c1ccc(C(F)(F)F)nc1)N1CC=C(c2ccccc2)CC1,4,-0.74
Cc1ccccc1NC(=O)Cn1cnc2c(C(N)=O)nsc2c1=O,-20,2.7
C#CCCC1(CCC(=O)N2CC(COC)(C3CC3)C2)N=N1,-19,2.36
Cc1cccn2cc(CN(CC(C)(C)O)C3CC3)nc12,-13,2.62
CC1CC(C(N)=O)c2ccccc2N1Cc1ccc(-n2cccn2)cc1 (stereo unspecified),-10,1.26
COc1cccc(OCCN2CC[C@H](NC(=O)c3ccccn3)[C@@H](O)C2)c1,-2,0.34
O=C(Nc1cccc2[nH]nnc12)N1CCC[C@@H]1CO,-10,1.48
CCn1cc(Br)cc1C(=O)NC[C@H](C)c1nncn1C,-5,0.59
CC1CN(C(=O)c2cccc(C(=O)O)n2)C(c2ccccc2)CO1 (stereo unspecified),-3,0.48
COc1ccc(Nc2nc(NCCCn3ccnc3)nc3[nH]ncc23)cc1,18,-3.48
CCN1CCN([C@H]2C(=O)c3ccccc3N2C(C)=O)CC1,-20,2.67
COc1ccc(NC(=O)CCc2cccc3[nH]ccc23)cc1,-1,0.09
Cc1nc(C2CCCCC2)sc1C(=O)N1CC[C@H](O)CC12CCC2,-12,1.43
